Experimental data published in the supplement of paper PMC3334620.
Whole data set: some 33,000 sequences, median “E-score (-0.5 to 0.5)” near -0.013, cut for the highest 2% near 0.3. The list shows a part of the results.

Biological target: T1, Msn1 (UniProt P22148)
T1 sequence: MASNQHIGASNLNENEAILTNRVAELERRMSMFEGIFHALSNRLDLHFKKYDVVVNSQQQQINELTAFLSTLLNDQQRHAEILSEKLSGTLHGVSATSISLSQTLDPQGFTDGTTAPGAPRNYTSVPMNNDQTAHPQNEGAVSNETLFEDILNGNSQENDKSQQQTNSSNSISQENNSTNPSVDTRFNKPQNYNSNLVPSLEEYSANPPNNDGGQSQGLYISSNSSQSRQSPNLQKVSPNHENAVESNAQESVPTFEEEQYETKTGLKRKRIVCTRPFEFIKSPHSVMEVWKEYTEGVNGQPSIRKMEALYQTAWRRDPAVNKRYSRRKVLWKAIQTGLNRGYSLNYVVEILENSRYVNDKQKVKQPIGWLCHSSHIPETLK
Test: PBM E-score (8-mer binding enrichment) (E-score (-0.5 to 0.5)); higher = stronger / more preferred TF binding; most listed sequences are background and not binding sites
Conditions: protein concentration: 200 nM; construct: GST-full length
Protocol: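 Universal 'all 10-mer' protein binding microarrays (Agilent AMADID 015681) probed with GST-tagged S. cerevisiae TFs (full-length or DBD) made by in vitro transcription/translation (PURExpress), about 100-200 nM. Bound TF was detected with fluorescent anti-GST. Each ungapped 8-mer (which stands for itself and its reverse complement) is scored by the PBM enrichment score (E-score), a modified Wilcoxon-Mann-Whitney statistic from -0.5 to +0.5, computed with the Universal PBM Analysis Suite. Scale: above 0.35 generally sequence-specific binding.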

In order of falling “PBM E-score” value:
1. GAATTGTC  0.392
2. CGAGACAA  0.365
3. AATGTCAG  0.254
4. TTATTCAA  0.248
5. ACAAAGCA  0.245
6. CTTTATCA  0.201
7. GCGCGCCA  0.16
8. CAGATGAA  0.156
9. CAAAGATC  0.136
10. ACATTGAG  0.134
11. GTGGTTTA  0.133
12. GACGACAC  0.131
13. AATGTGTA  0.125
14. ATACAAGG  0.122
15. ACTCTCTA  0.114
16. TCCGCGGA  0.104
17. ACAGCATA  0.0958
18. TCCAGAAA  0.0933
19. ACTTAACA  0.0857
20. CAGAGCGA  0.0759
21. CAACAAAA  0.0735
22. CGGAGTGA  0.0725
23. ATGCATCA  0.0648
24. CACAACTC  0.0628
25. ATCTGAGG  0.0541
26. CAAACAAG  0.0508
27. GGAGACAC  0.0421
28. CCATTCAA  0.0362
29. CTAAGTGA  0.0358
30. CGCCGCGC  0.033
31. ACTGTGAA  0.0324
32. AGTCAAAT  0.0314
33. AGAGTAGG  0.0296
34. GACTTAGA  0.027
35. CACTATAC  0.0205
36. GCCGACGC  0.0201
37. AGCTAATG  0.0197
38. ATACCCGA  0.0193
39. TTACATAA  0.0155
40. CTCCGGAG  0.0152
41. TATCGCAA  0.015
42. ACGTTCTC  0.0126
43. ACATCTAA  0.00922
44. CGACCCAA  0.00093
45. ACTCGATC  -0.00093
46. CAAAGGGG  -0.0101
47. AGTTTACC  -0.0158
48. AGGAAACG  -0.017
49. ACTCTTGC  -0.0192
50. TGAGGCAA  -0.0211
51. ATCGTAAT  -0.0298
52. GCATCTCA  -0.0389
53. GGGGAACA  -0.0474
54. CAAGGCGA  -0.0587
55. AGCTCACG  -0.0597
56. ATGATAGG  -0.0635
57. GGTGAGAA  -0.0685
58. CCCGTAAC  -0.0775
59. CAGTTACG  -0.0781
60. ACCGGCAA  -0.081
61. CACTTGCA  -0.0887
62. AGATTCAG  -0.0889
63. ACTCTCCT  -0.0918
64. CTCCCGCC  -0.096
65. AACAGCCG  -0.0973
66. CCCCATAA  -0.103
67. ATGCTATC  -0.105
68. AACCCTCG  -0.107
69. ACGGTCAG  -0.117
70. GCATACGC  -0.124
71. CCTCGCAA  -0.125
72. AGGGTCCA  -0.141
73. AGCCAGCG  -0.15
74. AGCAGTAA  -0.155
75. GAGTGAAC  -0.164
76. CGCTTCAC  -0.165
77. AAACGCCC  -0.167
78. CCTAGGCC  -0.192
79. ACTCTATG  -0.194
80. AGCAGAGG  -0.194
81. GCAGCGCA  -0.203
82. CACCCTTC  -0.215
83. CGCTACAC  -0.231
84. CAGAAGCC  -0.241
85. AGGGGCGA  -0.345
86. AGGGACGG  -0.35
